# Laboratory results from PMC4336329 (PLoS ONE, 2015).
# Screen size: about 310,000 compounds; about 2,200 (0.71%) showed an effect of 50% or more. Effects have a minus sign here. The list shows a part of the results.
# Biological target: human ether-à-go-go-related gene (hERG) potassium channel (human, UniProt Q12809)
# Experiment: primary screen, population patch clamp on CHO cells stably expressing hERG
# Sequence of human ether-à-go-go-related gene (hERG) potassium channel (Q12809 whole entry, looked up): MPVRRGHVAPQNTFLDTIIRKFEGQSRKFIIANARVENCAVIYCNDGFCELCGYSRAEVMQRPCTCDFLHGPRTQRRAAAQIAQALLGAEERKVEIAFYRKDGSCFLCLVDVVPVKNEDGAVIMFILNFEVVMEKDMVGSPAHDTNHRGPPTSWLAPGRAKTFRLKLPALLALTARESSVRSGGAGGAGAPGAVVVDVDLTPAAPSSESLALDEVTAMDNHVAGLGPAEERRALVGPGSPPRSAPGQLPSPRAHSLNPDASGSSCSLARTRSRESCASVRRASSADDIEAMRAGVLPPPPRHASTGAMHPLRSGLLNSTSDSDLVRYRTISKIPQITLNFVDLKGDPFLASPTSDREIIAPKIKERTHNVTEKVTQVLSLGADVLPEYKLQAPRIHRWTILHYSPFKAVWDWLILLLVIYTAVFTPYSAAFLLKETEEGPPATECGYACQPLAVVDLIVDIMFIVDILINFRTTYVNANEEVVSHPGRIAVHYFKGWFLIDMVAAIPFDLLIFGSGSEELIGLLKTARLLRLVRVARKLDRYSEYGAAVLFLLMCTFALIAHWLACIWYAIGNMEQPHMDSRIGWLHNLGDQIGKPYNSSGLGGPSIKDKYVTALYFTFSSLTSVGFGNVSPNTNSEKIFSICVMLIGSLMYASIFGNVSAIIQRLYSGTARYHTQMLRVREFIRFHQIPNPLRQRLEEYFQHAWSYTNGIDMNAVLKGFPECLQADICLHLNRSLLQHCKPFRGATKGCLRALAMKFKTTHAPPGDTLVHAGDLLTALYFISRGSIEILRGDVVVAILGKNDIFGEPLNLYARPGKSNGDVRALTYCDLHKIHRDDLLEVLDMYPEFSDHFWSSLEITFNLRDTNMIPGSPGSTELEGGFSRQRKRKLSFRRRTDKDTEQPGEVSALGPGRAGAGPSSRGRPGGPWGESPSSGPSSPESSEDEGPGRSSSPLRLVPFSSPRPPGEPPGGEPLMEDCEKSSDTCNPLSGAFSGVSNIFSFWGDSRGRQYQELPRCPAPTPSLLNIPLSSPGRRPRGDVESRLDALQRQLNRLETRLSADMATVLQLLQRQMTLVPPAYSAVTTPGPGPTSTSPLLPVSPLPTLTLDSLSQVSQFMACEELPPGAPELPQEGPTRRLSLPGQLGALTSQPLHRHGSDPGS
row,Compound,"hERG current change (%, negative = inhibition) at 1uM"
1,O=C(CSc1nc2[nH]ncc2c(=O)[nH]1)Nc1cccc([N+](=O)[O-])c1,-14%
2,O=C(NC(Cc1ccccc1)C(=O)O)/C(=C\c1ccco1)NC(=O)c1ccccc1Br (centres unmarked),11.1%
3,Cc1csc(NC(=O)CSc2nnc(CCNC(=O)c3cccs3)n2C)n1,7.3%
4,Cc1ccc(NC(=O)c2cccc3c2-c2ccccc2C3=O)cc1C,-0.741%
5,Cc1cc(C)nc(NS(=O)(=O)c2ccc(NC(=O)c3cccc(N4C(=O)CCC4=O)c3)cc2)n1,-0.528%
6,COc1cc(CC(=O)Nc2nccs2)cc(OC)c1OC,1.94%
7,O=C(NCCNc1ccc([N+](=O)[O-])cc1)c1ccco1,-0.116%
8,O=c1c2ccccc2[nH]c(=S)n1-c1cccc(S(=O)(=O)N2CCCC2)c1,7.62%
9,CC(=O)c1ccc(NC(=S)Nc2ccc3cn[nH]c3c2)cc1,14.2%
10,COc1ccc(C(=O)Nc2cccc(C(=O)NCc3ccco3)c2)cc1,5.14%
11,O=C(O)c1ccccc1CSc1nc2ccccc2o1,14.8%
12,CCn1c(SCC(=O)Nc2ccccc2)nnc1-c1cccs1,-13.8%
13,Cl.OC(CN1CCOCC1)CN(c1ccccc1)c1ccccc1 (centres unmarked),6.82%
14,CCN(C(=O)COC(=O)Cc1c(F)cccc1Cl)c1c(N)n(Cc2ccccc2)c(=O)[nH]c1=O,13.5%
15,Cl.O=C(CCN1CCCCCC1)Nc1ccc(F)cc1,-21.3%
16,Cl.O=C(CSc1nc(O)cc(=O)n1-c1ccccc1)Nc1ccccn1,10.3%
17,Cc1ccc(S(=O)(=O)N2CCN(Cc3cc(C(C)C)ccc3O)CC2)cc1,9.31%
18,CCOC(=O)c1cc(-c2ccccc2)n(CCC(=O)N2CCN(c3ccccn3)CC2)c1C,1.18%
19,CCOc1cc(/C=N/n2cnnc2)ccc1O,17.1%

row,Compound,"hERG current change (%, negative = inhibition) at 1uM"
1,CCOc1ccc2c(=O)c(-c3ccc4c(c3)OCCCO4)c(C)oc2c1,11.7%
2,C/C(=N\NC(=O)CSc1nc2ccccc2s1)c1cccnc1,7.7%
3,COc1ccc(NS(=O)(=O)c2cc(NC(=O)c3ccc(F)cc3)ccc2OC)cc1,13.5%
4,COc1ccc(Cc2nnc(SCC(=O)Nc3ncc(C)s3)o2)cc1,1.23%
5,COC(=O)c1ccc(CSc2nccn2C)cc1,0.891%
6,CCOP(=O)(O)c1ccccc1OCCOc1ccccc1P(=O)(O)OCC,13.7%
7,COc1ccc(NC(=O)CC2Oc3ccccc3NC2=O)cc1 (centres unmarked),11.8%
8,CC(C)Cn1c(=O)c(C(=O)Nc2ccncc2)c(O)c2ccccc21,-2.65%
9,COc1ccc(C(C)=O)cc1CSc1nc2ccccc2c(=O)n1-c1ccccc1C,11.2%
10,Cc1c(C(c2ccc(O)cc2)c2c(O)c3ccccc3oc2=O)c(=O)n(-c2ccccc2)n1C (centres unmarked),12%
11,O=C(Cn1cc(S(=O)(=O)Cc2ccccc2F)c2ccccc21)N1CCOCC1,12%
12,Cc1c(CN2CCC(n3nccc3NC(=O)C3CC3)CC2)[nH]c2ccccc12,-34.9%
13,CCOC(=O)c1cnc(-n2nc(C)cc2C)nc1NC(C)c1ccccc1 (centres unmarked),8.98%
14,Cc1ccc2[nH]c(=O)c(C(c3nnnn3C3CCCC3)N(Cc3cccnc3)Cc3ccco3)cc2c1 (centres unmarked),8.5%
15,O=C(Cc1ccccc1)Nc1ccccc1N1CCOCC1,1.39%
16,CSc1nc(N)c(C#N)c(-c2ccccc2Cl)c1C#N,9.93%
17,COC(=O)[C@H](CC(C)C)NC(=O)Nc1ccccc1F,12.4%
18,O=C1c2cccc(OCC(=O)N3CCCc4ccccc43)c2CCN1Cc1ccc(F)cc1,11.8%
19,N#CCCn1cc(C(=O)O)c(-c2ccc3ccccc3c2)n1,4.8%

row,Compound,"hERG current change (%, negative = inhibition) at 1uM"
1,CC(=O)c1c(C)[nH]c(C(=O)CSc2nc3ccccc3c(=O)n2CCCN2CCOCC2)c1C,8.71%
2,COC(=O)c1sccc1NC(=O)c1ccc(C#N)cc1,16.4%
3,COc1cc(/C=N/NC(=O)c2cc(-c3c(C)nn(-c4ccccc4)c3C)n[nH]2)ccc1O,8.5%
4,Cc1c(C(=O)N2CCN(C)CC2)oc2ccc(Br)cc12,14.2%
5,O=C(NCC(=O)N1CCN(S(=O)(=O)c2ccccc2F)CC1)c1ccc(Br)o1,2.38%
6,CC(=O)Nc1nnc(SCC(=O)c2ccc(F)cc2)s1,4.92%
7,Cn1c(N2CCC(C(N)=O)CC2)nc2c1c(=O)n(Cc1cccc(Br)c1)c(=O)n2C,-20.3%
8,O=C(NCc1cccnc1)c1cccc(F)c1,5.29%
9,CCCC(C)C(=O)Nc1ncc(S(=O)(=O)c2ccc([N+](=O)[O-])cc2)s1 (centres unmarked),14.6%
10,CC(C)=CCN1CCN(Cc2nc(-c3ccc(F)cc3)cs2)CC1CCO (centres unmarked),-47.8%
11,CCc1ccc(NC(=O)C(=S)NC2CCCCC2)cc1,12.6%
12,COc1ccccc1CNC(=O)[C@H](Cc1c[nH]c2ccccc12)NC(=O)[C@@H]1Cc2ccccc2CN1,9.74%
13,O=C(CCS(=O)NCc1ccccc1)NCc1ccccc1 (centres unmarked),15.3%
14,Cc1ccc(CNC(=O)CCS(=O)(=O)c2cc3c(cc2C)NC(=O)CO3)cc1,2.98%
15,Cc1ccc(-c2ccc(/C=N/NC(=O)c3ccccc3O)o2)cc1,15.2%
16,O=C(Cn1ccc2ccccc2c1=O)NCCC(=O)N1CCCCC1,12.9%
17,CCCCC(=Nc1ccc(N)cc1)C1=C(O)C(C(=O)OC)C(C)(C)CC1=O (centres unmarked),4.92%
18,O=C(Cc1ccc(Cl)c(Cl)c1)Nc1cccnc1,5.04%
